Measured values reported in ChEMBL document CHEMBL4888484, “Replenishing the malaria drug discovery pipeline: Screening and hit evaluation of the MMV Hit Generation Library 1 (HGL1) against asexual blood stage Plasmodium falciparum ,using a nano luciferase reporter read-out” (2022).
The whole screen tested about 150,000 compounds, of which about 540 (0.36%) showed an effect of 50% or more. This is one part of the list.

Each compound was assayed on Plasmodium falciparum (assay: Primary screen in NF54 nanoGlo assay, in single point, at 2uM, 72h; a lower Z score goes with more inhibition). Settings: timepoint 72 hour.
Type: functional, Erythrocyte

Compound | % Inhibition [%] | Z score
CCCN(Cc1sc(C)nc1C)S(=O)(=O)N1CCCCC1 | -9 | 0.77
NC(=O)C1CCN(C2CN(C(=O)CCc3ccc(Br)cc3)C2)CC1 | -6 | 0.88
CC(C)(C)c1ccn(C2(C(=O)O)CCN(C(=O)[C@H]3CC34CCC4)CC2)n1 | -13 | 2.5
CCc1nc2c(N3CC[C@@H](CO)[C@@H](O)C3)ncnc2o1 | -9 | 1.43
Cc1ccncc1C(=O)N1C[C@H](C)C[C@H](O)C1 | 10 | -0.8
CCN(C)CC(=O)N1CCC2(CCC(=O)N(Cc3cccnc3)C2)CC1 | -3 | 0.56
CC1CCC(C)N1C(C)C(=O)Nc1cc(-c2nccn2C)n[nH]1 (centres undefined) | 2 | -0.17
O=C(CCc1c[nH]cn1)N1CCCCCO1 | 18 | -2.27
CCC[C@H]1C=CCN1C(=O)c1cn2cc(Cl)cnc2n1 | -18 | 2.01
Cc1ccc(CCNC(=O)N2CCC(C)CC2C)cn1 (centres undefined) | 2 | -0.35
CCc1ccccc1N1CCN(S(=O)(=O)CC23CCC(CC2=O)C3(C)C)CC1 (centres undefined) | 0 | 0.01
O[C@H]1CCCN(c2ccnc(NCC3(Cn4ccnc4)CC3)n2)C1 | 9 | -1.19
O=C1C2N=NN(c3ccc(F)c(Cl)c3)C2C(=O)N1c1ccc2c(c1)CCC2 (centres undefined) | -9 | 1.02
O=C(Nc1ccncn1)NC1(C(F)(F)F)CCCCC1 | 0 | -0.01
CCn1ncc(C)c1NC(=O)C[C@H]1C(=O)NCCN1Cc1ccccc1 | -6 | 0.99
CCc1ccc(C(=O)N(CCOC)Cc2c(C)nn(-c3cccc(F)c3)c2N2CCN(CC)CC2)cc1 | 5 | -0.6
COc1ccc(OC)c(C(=O)N2CCN(C[C@H]3CCCCN3C)CC2)c1 | -7 | 0.91
Cc1c(S(=O)(=O)c2ccc(F)cc2)c(N)n(C2CCCCC2)c1C | -2 | 0.26
CN(Cc1ccccc1NCc1nc(=O)[nH][nH]1)C(=O)c1cccs1 | -5 | 0.92
Cc1ccc(C(=O)N2CCOC[C@@H](CN(C)C)C2)n1C(F)F | 0 | 0.03
CN1CCN(C[C@H]2CCCN(c3c(Cl)cccc3C#N)C2)CC1 | -10 | 0.87

Compound | % Inhibition [%] | Z score
O=C(N[C@H]1CCN(C(=O)C2CCC2)C1)C1CCCC1 | -4 | 0.6
CN1CCc2ncnc(NCc3nc4c(F)c(F)ccc4[nH]3)c2C1 | -5 | 1.11
CC[C@H](C)NC(=O)CCNCC1CCCCCC1 | -6 | 0.87
CNCc1cccc(NC(=O)c2ccc(C)nc2C2CC2)c1 | 2 | -0.32
CCn1cc(S(=O)(=O)N2CCC3(CC2)CN(C(C)C)[C@@H]3c2ccccc2)cn1 | 3 | -0.47
COc1ccc(-c2c3c(=O)n(C)c(=O)n(C)c3c3n2C(C)(C)CO[C@@H]3c2ccc(Cl)cc2)cc1 | 0 | -0.05
O=C(NCC(=O)N1CCCC1)c1ccc(N2CCCC2)nc1 | -8 | 1.11
Cc1ccccc1Cn1ncnc1[C@H]1CCCN(C(C)C)C1 | 8 | -1.11
COc1cccc(CN(C)Cc2cnn(C(C)C)c2)n1 | -4 | 0.44
COc1ccc(C(O)CN2CCC(c3ccccc3)C2)cc1F (centres undefined) | 36 | -2.43
CCc1ncc(NC(=O)N2CCC(CCN3CCCC[C@@H]3C)CC2)cn1 | 8 | -1.64
COc1ccc([C@@H]2C=C(c3ccccc3)Nc3nc(NS(=O)(=O)c4ccc(C)cc4)nn32)cc1 | 9 | -1.14
CCN1C(=O)C[C@H](N(C)CC(=O)Nc2c(C)cc(C)cc2C)C1=O | 1 | -0.22
Cc1ccc(C(C)(C)CN(C)Cc2nsc(N(C)C)n2)cc1 | -16 | 2.95
COc1ccccc1CCN1C(=O)c2ccccc2N[C@]12C(=O)N(C)c1ccccc12 | -8 | 0.99
O=C(Nc1nc(CC(=O)N2CCOCC2)cs1)c1ccco1 | -13 | 1.47
CCn1c(CC2CCNCC2)nn(Cc2noc(-c3ccccc3)n2)c1=O | -10 | 1.92
Clc1cc(N2CCOCC2)c2nonc2c1 | -8 | 1.28
O=C(NCc1cnc2cnccn12)c1conc1-c1ccccc1 | -11 | 2.08
CCc1noc(-c2cnc3nc(C)ccc3c2NCC(C)C)n1 | -9 | 1.07
COc1cccc(CN2CCC[C@H](n3cc(C)cn3)C2)c1F | 9 | -1.17
